Substrate in series [1]: COC(=O)C(CC(C)C)NC(=O)[C@H](Cc1ccccc1)NC(=O)[C@H](Cc1c[nH]cn1)NC(=O)OCc1ccccc1
Put plainly: The kinetic constant (Km)of porcine pepsin substrate Z-His-Phe-Leu-oMe was determined.

Substrate in series [2]: COC(=O)C(C)NC(=O)[C@H](Cc1ccccc1)NC(=O)[C@H](Cc1c[nH]cn1)NC(=O)OCc1ccccc1
Put plainly: The kinetic constant (Km)of porcine pepsin substrate Z-His-Phe-Ala-oMe was determined.

Substrate in series [3]: COC(=O)C(Cc1ccccc1)NC(=O)[C@H](Cc1ccccc1)NC(=O)[C@H](Cc1c[nH]cn1)NC(=O)OCc1ccccc1
In words: The kinetic constant (Km)of porcine pepsin substrate Z-His-Phe-Phe-oMe was determined.

Substrate in series [4]: COC(=O)CNC(=O)[C@H](Cc1ccccc1)NC(=O)[C@H](Cc1c[nH]cn1)NC(=O)OCc1ccccc1
Put plainly: The kinetic constant (Km)of porcine pepsin substrate Z-His-Phe-Gly-oMe was determined.

B1: Pepsin A (Sus scrofa), P00791 (protein)
chain: MKWLLLLSLVVLSECLVKVPLVRKKSLRQNLIKNGKLKDFLKTHKHNPASKYFPEAAALIGDEPLENYLDTEYFGTIGIGTPAQDFTVIFDTGSSNLWVPSVYCSSLACSDHNQFNPDDSSTFEATSQELSITYGTGSMTGILGYDTVQVGGISDTNQIFGLSETEPGSFLYYAPFDGILGLAYPSISASGATPVFDNLWDQGLVSQDLFSVYLSSNDDSGSVVLLGGIDSSYYTGSLNWVPVSVEGYWQITLDSITMDGETIACSGGCQAIVDTGTSLLTGPTSAIANIQSDIGASENSDGEMVISCSSIDSLPDIVFTINGVQYPLSPSAYILQDDDSCTSGFEGMDVPTSSGELWILGDVFIRQYYTVFDRANNKVGLAPVA
Consider B1, for which the Km in series [1] was 500 µM; in series [2], 1800 µM; in series [3], 330 µM; in series [4] it was 1600 µM.

(Values after ChEMBL document CHEMBL1123676, “Synthetic and enzyme inhibition studies of pepstatin analogues containing hydroxyethylene and ketomethylene dipeptide isosteres” (J Med Chem, 1987).)
